# Test results from the supplement of paper PMC8728848.
# This is one part of the list.
# How the values were obtained:
# Assay in all cases: glycan array binding signal (z-score within array); higher = stronger binding
# Conditions in all cases: glycan notation: IUPAC condensed, linker removed
# [1] = biological target: Gal(b1-4)GlcNAc(b1-3)Gal(b1-4)GlcNAc(b1-6)[Gal(b1-3)]GalNAc
# Method in brief: (§1)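 The Consortium for Functional Glycomics database supplied 3228 glycan arrays, of which those lacking an available protein sequence were dropped. The binding signal, a within-array Z-score, was averaged across arrays of the same protein sequence and across linkers. Negative scores can be read as non-binding.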
# [2] = biological target: Gal(b1-4)GlcNAc(b1-3)Gal(b1-4)[Fuc(a1-3)]GlcNAc(b1-3)Gal(b1-4)[Fuc(a1-3)]GlcNAc
# Method in brief: as §1
# [3] = biological target: Gal(b1-4)GlcNAc(b1-3)GalNAc
# Method in brief: as §1
# [4] = biological target: Gal(b1-4)GlcNAc(b1-3)[Fuc(a1-3)GlcNAc(b1-6)]Gal(b1-4)Glc
# Method in brief: as §1
# [5] = biological target: Gal(b1-4)GlcNAc(b1-3)[Gal(b1-4)GlcNAc(b1-6)]Gal(b1-4)GlcNAc
# Method in brief: as §1
# [6] = biological target: Gal(b1-4)GlcNAc(b1-3)[GlcNAc(b1-6)]Gal(b1-4)GlcNAc
# Method in brief: as §1
# [7] = biological target: Gal(b1-4)GlcNAc(b1-6)Gal(b1-4)GlcNAc
# Method in brief: as §1
# [8] = biological target: Gal(b1-4)GlcNAc(b1-6)GalNAc
# Method in brief: as §1
# [9] = biological target: Gal(b1-4)GlcNAc(b1-6)[Gal(b1-3)]GalNAc
# Method in brief: as §1
# [10] = biological target: Gal(b1-4)GlcNAc(b1-6)[Gal(b1-4)GlcNAc(b1-3)]GalNAc
# Method in brief: as §1
# [11] = biological target: Gal(b1-4)GlcNAc6P
# Method in brief: as §1
# [12] = biological target: Gal(b1-6)Gal
# Method in brief: as §1
# [13] = biological target: Gal3S(b1-3)GalNAc
# Method in brief: as §1
# [14] = biological target: Gal3S(b1-3)GlcNAc
# Method in brief: as §1
# [15] = biological target: Gal3S(b1-3)[Fuc(a1-4)]GlcNAc
# Method in brief: as §1
# [16] = biological target: Gal3S(b1-4)Glc
# Method in brief: as §1
# [17] = biological target: Gal3S(b1-4)Glc6S
# Method in brief: as §1
# [18] = biological target: Gal3S(b1-4)GlcNAc
# Method in brief: as §1
# [19] = biological target: Gal3S(b1-4)[Fuc(a1-3)]Glc6S
# Method in brief: as §1
# [20] = biological target: Gal3S(b1-4)[Fuc(a1-3)]GlcNAc
# Method in brief: as §1
# [21] = biological target: Gal3S(b1-4)[Fuc(a1-3)]GlcNAc6S
# Method in brief: as §1
# [22] = biological target: Gal3S4S(b1-4)GlcNAc
# Method in brief: as §1
# [23] = biological target: Gal3S6S(b1-4)GlcNAc
# Method in brief: as §1
# [24] = biological target: Gal3S6S(b1-4)GlcNAc6S
# Method in brief: as §1
# [25] = biological target: Gal4S(b1-4)GlcNAc
# Method in brief: as §1
# [26] = biological target: Gal4S6S(b1-4)GlcNAc
# Method in brief: as §1
# [27] = biological target: Gal6P(b1-4)GlcNAc
# Method in brief: as §1
# [28] = biological target: Gal6S(b1-3)GlcNAc
# Method in brief: as §1
# [29] = biological target: Gal6S(b1-3)GlcNAc6S
# Method in brief: as §1
# [30] = biological target: Gal6S(b1-4)Glc
# Method in brief: as §1
# [31] = biological target: Gal6S(b1-4)Glc6S
# Method in brief: as §1
# [32] = biological target: Gal6S(b1-4)GlcNAc
# Method in brief: as §1
# [33] = biological target: Gal6S(b1-4)GlcNAc6S
# Method in brief: as §1
# [34] = biological target: GalNAc(a1-3)Gal
# Method in brief: as §1
# [35] = biological target: GalNAc(a1-3)GalNAc
# Method in brief: as §1
# [36] = biological target: GalNAc(a1-3)GalNAc(a1-3)Gal(a1-4)Gal(b1-4)GlcNAc
# Method in brief: as §1
# [37] = biological target: GalNAc(a1-3)GalNAc(b1-3)Gal(a1-4)Gal(b1-4)Glc
# Method in brief: as §1
# [38] = biological target: GalNAc(b1-3)Gal
# Method in brief: as §1
# [39] = biological target: GalNAc(b1-3)Gal(a1-4)Gal(b1-4)GlcNAc
# Method in brief: as §1
# [40] = biological target: GalNAc(b1-3)Gal(a1-4)Gal(b1-4)GlcNAc(b1-3)Gal(b1-4)Glc
# Method in brief: as §1
# [41] = biological target: GalNAc(b1-3)Gal(a1-6)Gal(b1-4)Glc
# Method in brief: as §1
# [42] = biological target: GalNAc(b1-3)GalNAc
# Method in brief: as §1
# [43] = biological target: GalNAc(b1-3)GlcNAc
# Method in brief: as §1
# [44] = biological target: GalNAc(b1-4)Gal(b1-4)Glc
# Method in brief: as §1
# [45] = biological target: GalNAc(b1-4)GlcNAc
# Method in brief: as §1
# [46] = biological target: GalNAc(b1-4)GlcNAc(b1-2)Man
# Method in brief: as §1
# [47] = biological target: GalNAc(b1-4)GlcNAc(b1-2)Man(a1-3)[GalNAc(b1-4)GlcNAc(b1-2)Man(a1-6)]Man(b1-4)GlcNAc(b1-4)GlcNAc
# Method in brief: as §1
# [48] = biological target: GalNAc(b1-4)GlcNAc(b1-3)GalNAc(b1-4)GlcNAc
# Method in brief: as §1
# [49] = biological target: GalNAc(b1-4)GlcNAc6S
# Method in brief: as §1
# [50] = biological target: GalNAc(b1-6)GalNAc
# Method in brief: as §1
# [51] = biological target: GalNAc3S(b1-4)GlcNAc
# Method in brief: as §1
# [52] = biological target: GalNAc3S(b1-4)GlcNAc3S
# Method in brief: as §1
# [53] = biological target: GalNAc3S(b1-4)[Fuc(a1-3)]GlcNAc
# Method in brief: as §1
# [54] = biological target: GalNAc4S6S(b1-4)GlcNAc
# Method in brief: as §1
# [55] = biological target: GalNAc6S(b1-4)GlcNAc
# Method in brief: as §1
# [56] = biological target: Glc(a1-4)Glc
# Method in brief: as §1
# [57] = biological target: Glc(a1-4)Glc(a1-4)Glc(a1-4)Glc
# Method in brief: as §1
# [58] = biological target: Glc(a1-6)Glc(a1-6)Glc
# Method in brief: as §1
# [59] = biological target: Glc(a1-6)Glc(a1-6)Glc(a1-6)Glc
# Method in brief: as §1
# [60] = biological target: Glc(b1-4)Glc
# Method in brief: as §1
# [61] = biological target: Glc(b1-6)Glc
# Method in brief: as §1
# [62] = biological target: GlcA(b1-3)Gal
# Method in brief: as §1
# [63] = biological target: GlcA(b1-3)GlcNAc
# Method in brief: as §1
# [64] = biological target: GlcA(b1-6)Gal
# Method in brief: as §1
# [65] = biological target: GlcA3S(b1-3)Gal(b1-4)GlcNAc(b1-2)Man
# Method in brief: as §1
# [66] = biological target: GlcA3S(b1-3)Gal(b1-4)GlcNAc(b1-3)Gal(b1-4)Glc
# Method in brief: as §1
# [67] = biological target: GlcNAc(a1-3)Gal(b1-4)GlcNAc
# Method in brief: as §1
# [68] = biological target: GlcNAc(a1-4)Gal(b1-3)GlcNAc
# Method in brief: as §1
# [69] = biological target: GlcNAc(a1-4)Gal(b1-4)GalNAc
# Method in brief: as §1
# [70] = biological target: GlcNAc(a1-4)Gal(b1-4)GlcNAc
# Method in brief: as §1
# [71] = biological target: GlcNAc(a1-4)Gal(b1-4)GlcNAc(b1-3)Gal(b1-4)Glc
# Method in brief: as §1
# [72] = biological target: GlcNAc(a1-4)Gal(b1-4)GlcNAc(b1-3)Gal(b1-4)GlcNAc
# Method in brief: as §1
# [73] = biological target: GlcNAc(a1-4)Gal(b1-4)GlcNAc(b1-3)Gal(b1-4)GlcNAc(b1-3)Gal(b1-4)GlcNAc
# Method in brief: as §1
# [74] = biological target: GlcNAc(a1-4)Gal(b1-4)GlcNAc(b1-3)Gal(b1-4)[Fuc(a1-3)]GlcNAc(b1-3)Gal(b1-4)[Fuc(a1-3)]GlcNAc
# Method in brief: as §1
# [75] = biological target: GlcNAc(a1-6)Gal(b1-4)GlcNAc
# Method in brief: as §1
binder,measurement,setting,value
"mCC1-Hexahis-Precomplexed (Mus musculus), P31809 (protein) MELASAHLHKGQVPWGGLLLTASLLASWSPATTAEVTIEAVPPQVAEDNNVLLLVHNLPLALGAFAWYKGNTTAIDKEIARFVPNSNMNFTGQAYSGREIIYSNGSLLFQMITMKDMGVYTLDMTDENYRRTQATVRFHVHPILLKPNITSNNSNPVEGDDSVSLTCDSYTDPDNINYLWSRNGESLSEGDRLKLSEGNRTLTLLNVTRNDTGPYVCETRNPVSVNRSDPFSLNIIYGPDTPIISPSDIYLHPGSNLNLSCHAASNPPAQYFWLINEKPHASSQELFIPNITTNNSGTYTCFVNNSVTGLSRTTVKNITVLEPVTQPFLQVTNTTVKELDSVTLTCLSNDIGANIQWLFNSQSLQLTERMTLSQNNSILRIDPIKREDAGEYQCEISNPVSVRRSNSIKLDIIFDPTQGGLSDGHHHHHH",glycan array binding signal (z-score),[1],5.01
same,glycan array binding signal (z-score),[2],-0.031
same,glycan array binding signal (z-score),[3],-0.081
same,glycan array binding signal (z-score),[4],0.712
same,glycan array binding signal (z-score),[5],-0.185
same,glycan array binding signal (z-score),[6],-0.196
same,glycan array binding signal (z-score),[7],-0.19
same,glycan array binding signal (z-score),[8],-0.217
same,glycan array binding signal (z-score),[9],-0.217
same,glycan array binding signal (z-score),[10],-0.153
same,glycan array binding signal (z-score),[11],-0.289
same,glycan array binding signal (z-score),[12],-0.239
same,glycan array binding signal (z-score),[13],-0.308
same,glycan array binding signal (z-score),[14],-0.236
same,glycan array binding signal (z-score),[15],-0.249
same,glycan array binding signal (z-score),[16],-0.25
same,glycan array binding signal (z-score),[17],-0.194
same,glycan array binding signal (z-score),[18],-0.255
same,glycan array binding signal (z-score),[19],-0.049
same,glycan array binding signal (z-score),[20],-0.277
same,glycan array binding signal (z-score),[21],-0.225
same,glycan array binding signal (z-score),[22],-0.229
same,glycan array binding signal (z-score),[23],-0.321
same,glycan array binding signal (z-score),[24],-0.276
same,glycan array binding signal (z-score),[25],-0.25
same,glycan array binding signal (z-score),[26],-0.237
same,glycan array binding signal (z-score),[27],-0.271
same,glycan array binding signal (z-score),[28],-0.181
same,glycan array binding signal (z-score),[29],-0.249
same,glycan array binding signal (z-score),[30],-0.191
same,glycan array binding signal (z-score),[31],-0.18
same,glycan array binding signal (z-score),[32],-0.076
same,glycan array binding signal (z-score),[33],-0.246
same,glycan array binding signal (z-score),[34],-0.254
same,glycan array binding signal (z-score),[35],-0.085
same,glycan array binding signal (z-score),[36],-0.267
same,glycan array binding signal (z-score),[37],-0.182
same,glycan array binding signal (z-score),[38],-0.208
same,glycan array binding signal (z-score),[39],-0.194
same,glycan array binding signal (z-score),[40],-0.269
same,glycan array binding signal (z-score),[41],-0.095
same,glycan array binding signal (z-score),[42],-0.247
same,glycan array binding signal (z-score),[43],-0.3
same,glycan array binding signal (z-score),[44],0.008
same,glycan array binding signal (z-score),[45],-0.264
same,glycan array binding signal (z-score),[46],-0.241
same,glycan array binding signal (z-score),[47],0.224
same,glycan array binding signal (z-score),[48],-0.295
same,glycan array binding signal (z-score),[49],-0.282
same,glycan array binding signal (z-score),[50],-0.226
same,glycan array binding signal (z-score),[51],-0.254
same,glycan array binding signal (z-score),[52],-0.065
same,glycan array binding signal (z-score),[53],-0.25
same,glycan array binding signal (z-score),[54],-0.07
same,glycan array binding signal (z-score),[55],-0.292
same,glycan array binding signal (z-score),[56],-0.185
same,glycan array binding signal (z-score),[57],0
same,glycan array binding signal (z-score),[58],-0.192
same,glycan array binding signal (z-score),[59],-0.077
same,glycan array binding signal (z-score),[60],-0.182
same,glycan array binding signal (z-score),[61],-0.254
same,glycan array binding signal (z-score),[62],-0.174
same,glycan array binding signal (z-score),[63],-0.289
same,glycan array binding signal (z-score),[64],-0.12
same,glycan array binding signal (z-score),[65],-0.001
same,glycan array binding signal (z-score),[66],-0.235
same,glycan array binding signal (z-score),[67],-0.183
same,glycan array binding signal (z-score),[68],-0.139
same,glycan array binding signal (z-score),[69],-0.219
same,glycan array binding signal (z-score),[70],-0.091
same,glycan array binding signal (z-score),[71],-0.173
same,glycan array binding signal (z-score),[72],-0.231
same,glycan array binding signal (z-score),[73],-0.225
same,glycan array binding signal (z-score),[74],-0.119
same,glycan array binding signal (z-score),[75],-0.279
